Each value is the number of isolates with that result; steps that no isolate showed are left empty. MIC of bacteria isolated from honey, broth microdilution (CLSI M07), 0.25-256 µg/mL, 24 h at 35 °C; higher = less susceptible. No active / inactive call. Isolates were picked on agar with 1 µg/mL tylosin.
How the values were obtained:
Test in all cases: Isolates counted by MIC
[1] = tested on: Paenibacillus sp. (10 isolates)
Method: (§1)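 CLSI M07 broth microdilution in cation-adjusted Mueller-Hinton broth, 0.25-256 µg/mL, 24 h at 35 °C in air (Clostridium: agar dilution, anaerobic).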

[2] = tested on: Alkalihalobacillus clausii (21 isolates)
Method: as §1

[3] = tested on: Bacillus licheniformis (32 isolates)
Method: as §1

[4] = tested on: Bacillus sp. (15 isolates)
Method: as §1

[5] = tested on: Paenibacillus lautus (10 isolates)
Method: as §1

[6] = tested on: Paenibacillus cineris (21 isolates)
Method: as §1

[7] = tested on: Bacillus paralicheniformis (11 isolates)
Method: as §1

[8] = tested on: Paenibacillus dendritiformis (14 isolates)
Method: as §1

CCC[C@@H]1C[C@@H](C(=O)N[C@@H]([C@H]2O[C@H](SC)[C@H](O)[C@@H](O)[C@H]2O)[C@@H](C)O)N(C)C1 [lincomycin]
Conditions | isolate count
[1], MIC: 32 µg/ml | 1
[1], MIC: 64 µg/ml | 1
[1], MIC: 128 µg/ml | 1
[1], MIC: 256 µg/ml | 1
[1], MIC: >256 µg/ml | 6
[2], MIC: 128 µg/ml | 1
[2], MIC: 256 µg/ml | 7
[2], MIC: >256 µg/ml | 13
[3], MIC: 128 µg/ml | 2
[3], MIC: 256 µg/ml | 9
[3], MIC: >256 µg/ml | 21
[4], MIC: 4 µg/ml | 1
[4], MIC: 8 µg/ml | 3
[4], MIC: 16 µg/ml | 7
[4], MIC: 128 µg/ml | 1
[4], MIC: 256 µg/ml | 1
[4], MIC: >256 µg/ml | 2
[5], MIC: 128 µg/ml | 6
[5], MIC: 256 µg/ml | 4
[6], MIC: 256 µg/ml | 10
[6], MIC: >256 µg/ml | 11
[7], MIC: 8 µg/ml | 1
[7], MIC: 256 µg/ml | 1
[7], MIC: >256 µg/ml | 9
[8], MIC: 1 µg/ml | 1
[8], MIC: 2 µg/ml | 2
[8], MIC: 4 µg/ml | 1
[8], MIC: 8 µg/ml | 7
[8], MIC: 16 µg/ml | 1
[8], MIC: 32 µg/ml | 1
[8], MIC: 64 µg/ml | 1

CN(C)[C@@H]1C(O)=C(C(N)=O)C(=O)[C@@]2(O)C(O)=C3C(=O)c4c(O)cccc4[C@@](C)(O)[C@H]3[C@H](O)[C@@H]12 [oxytetracycline]
Conditions | isolate count
[1], MIC: 0.5 µg/ml | 1
[1], MIC: 2 µg/ml | 1
[1], MIC: 4 µg/ml | 1
[1], MIC: 8 µg/ml | 2
[1], MIC: 16 µg/ml | 1
[1], MIC: 32 µg/ml | 1
[1], MIC: 64 µg/ml | 1
[1], MIC: 128 µg/ml | 1
[1], MIC: ≤0.25 µg/ml | 1
[2], MIC: 0.5 µg/ml | 1
[2], MIC: 1 µg/ml | 2
[2], MIC: 2 µg/ml | 1
[2], MIC: 4 µg/ml | 15
[2], MIC: 8 µg/ml | 2
[3], MIC: 0.5 µg/ml | 15
[3], MIC: 1 µg/ml | 1
[3], MIC: ≤0.25 µg/ml | 16
[4], MIC: 0.5 µg/ml | 2
[4], MIC: 1 µg/ml | 3
[4], MIC: 2 µg/ml | 3
[4], MIC: 8 µg/ml | 1
[4], MIC: 16 µg/ml | 2
[4], MIC: ≤0.25 µg/ml | 4
[5], MIC: 4 µg/ml | 3
[5], MIC: 8 µg/ml | 1
[5], MIC: 16 µg/ml | 3
[5], MIC: 32 µg/ml | 3
[6], MIC: 1 µg/ml | 1
[6], MIC: 8 µg/ml | 1
[6], MIC: 32 µg/ml | 7
[6], MIC: 64 µg/ml | 10
[6], MIC: 128 µg/ml | 2
[7], MIC: 8 µg/ml | 5
[7], MIC: 16 µg/ml | 6
[8], MIC: 0.5 µg/ml | 7
[8], MIC: 1 µg/ml | 6
[8], MIC: 64 µg/ml | 1

CC[C@H]1OC(=O)C[C@@H](O)[C@H](C)[C@@H](O[C@@H]2O[C@H](C)[C@@H](O[C@H]3C[C@@](C)(O)[C@@H](O)[C@H](C)O3)[C@H](N(C)C)[C@H]2O)[C@@H](CC=O)C[C@@H](C)C(=O)/C=C/C(C)=C/[C@@H]1CO[C@@H]1O[C@H](C)[C@@H](O)[C@@H](OC)[C@H]1OC [tylosin]
Conditions | isolate count
[1], MIC: 1 µg/ml | 1
[1], MIC: 2 µg/ml | 1
[1], MIC: 4 µg/ml | 3
[1], MIC: 8 µg/ml | 4
[1], MIC: 32 µg/ml | 1
[2], MIC: 8 µg/ml | 1
[2], MIC: 16 µg/ml | 1
[2], MIC: 32 µg/ml | 1
[2], MIC: 64 µg/ml | 9
[2], MIC: 128 µg/ml | 2
[2], MIC: 256 µg/ml | 1
[2], MIC: >256 µg/ml | 6
[3], MIC: 1 µg/ml | 13
[3], MIC: 2 µg/ml | 16
[3], MIC: 4 µg/ml | 3
[4], MIC: 1 µg/ml | 4
[4], MIC: 2 µg/ml | 8
[4], MIC: 4 µg/ml | 1
[4], MIC: 8 µg/ml | 2
[5], MIC: 4 µg/ml | 1
[5], MIC: 8 µg/ml | 6
[5], MIC: 16 µg/ml | 3
[6], MIC: 4 µg/ml | 2
[6], MIC: 8 µg/ml | 3
[6], MIC: 16 µg/ml | 10
[6], MIC: 32 µg/ml | 5
[6], MIC: 64 µg/ml | 1
[7], MIC: 1 µg/ml | 1
[7], MIC: 2 µg/ml | 9
[7], MIC: 4 µg/ml | 1
[8], MIC: 0.5 µg/ml | 1
[8], MIC: 4 µg/ml | 1
[8], MIC: ≤0.25 µg/ml | 12

Source: the supplement of paper PMC8116656
